Measured values as given in the RNAGym collection of RNA variant scans (doi:10.7554/elife.90254).
Read counts are not given, so values of variants with three or more changes are uncertain.

B1: LINE1-mini (parent)
chain: GGCAGAGCUCAACACAGCGUGGCAAAGUGGCUGUGGCUAGACUGCC

Variants of: B1
Experiment: self-cleavage, relative activity (ratio to wild type); higher = more cleavage; in vitro, sequencing; the parent is a self-cleaving ribozyme

Row | Variant | self-cleavage
1 | A12C C31U G44A | 0.01
2 | A12C C37G A41C | 0.01
3 | A12C C37U G40U | 0
4 | A12C C42G U43C C45G | 0.01
5 | A12C G17A C31U G36C C37G | 0.01
6 | A12C G17A C45A | 0.04
7 | A12C G17A G19A A24C C37A | 0
8 | A12C G17A G19U G33U U43A | 0.01
9 | A12C G17C C18A G22A G40C | 0.02
10 | A12C G17C U28A A41U C42U C46A | 0
11 | A12C G17U A26C C42G C46U | 0
12 | A12C G17U G21U A25G | 0.01
13 | A12C G17U G36U | 0
14 | A12C G17U U38C | 0.01
15 | A12C G19A A24C U34A | 0.01
16 | A12C G19A C23G U34G A41G | 0.03
17 | A12C G19A G29U | 0.02
18 | A12C G19C G21A G30C | 0.01
19 | A12C G19C G27U A39U C46U | 0
20 | A12C G19C G35U C37U A39U | 0
21 | A12C G19C G36A | 0.04

Row | Variant | self-cleavage
22 | A12C G19U C45G C46G | 0.04
23 | A12C G19U G21C U43A | 0.01
24 | A12C G19U U20G C23G G36A | 0.02
25 | A12C G21A G33A G40U U43A | 0.01
26 | A12C G21A G35U C45G | 0.03
27 | A12C G21A U28G C37U | 0.01
28 | A12C G21U A25G G40C | 0.01
29 | A12C G21U A26G C31U | 0
30 | A12C G21U G22U | 0.02
31 | A12C G21U G30C G35U | 0.01
32 | A12C G21U G35A | 0.02
33 | A12C G21U G36A G40U | 0.17
34 | A12C G22A G40U | 0.02
35 | A12C G22A U34A G36U | 0.02
36 | A12C G22C A24U | 0.05
37 | A12C G22U C23A U43G | 0.01
38 | A12C G22U G29U | 0.06
39 | A12C G22U U38A U43C | 0
40 | A12C G27A C31A | 0.01
41 | A12C G27A C45U | 0.02
42 | A12C G27C G30A | 0.01

Row | Variant | self-cleavage
43 | A12C G27C U32G | 0
44 | A12C G29A A39U C42G | 0
45 | A12C G29A C31G A39U | 0.02
46 | A12C G29A C46U | 0.01
47 | A12C G29C C31G | 0.01
48 | A12C G29U A41G | 0.02
49 | A12C G29U C37A | 0.01
50 | A12C G29U C37A C45A | 0.02
51 | A12C G29U G33A U34C | 0.03
52 | A12C G29U G40A | 0.03
53 | A12C G29U U34A G35U | 0.03
54 | A12C G30U C37U | 0.01
55 | A12C G30U U38A | 0
56 | A12C G33C C42U | 0.01
57 | A12C G33U G35U U43A | 0
58 | A12C G35U C45A | 0.04
59 | A12C G35U G36A | 0
60 | A12C G36A A39U C42U | 0.03
61 | A12C G40U C42U | 0.02
62 | A12C G44U C45A | 0.07
63 | A12C U20A A25C G29U | 0.02

Row | Variant | self-cleavage
64 | A12C U20A U38A U43C | 0.01
65 | A12C U20G C31U | 0.01
66 | A12C U20G G33A C45U | 0.01
67 | A12C U28A A41U | 0.01
68 | A12C U28A C31A | 0.02
69 | A12C U28A U32G | 0.02
70 | A12C U28A U34G C37A | 0.01
71 | A12C U28A U38A A39C | 0.01
72 | A12C U28C C37A | 0.03
73 | A12C U28C G35C | 0.01
74 | A12C U28G G36C | 0.01
75 | A12C U32A A39C | 0.02
76 | A12C U32A G35U | 0.02
77 | A12C U34G C42G | 0
78 | A12C U43A C46G | 0.01
79 | A12G A14C A41C G44A | 0.04
80 | A12G A14C C18A | 0.05
81 | A12G A14C C18A U28G | 0.04
82 | A12G A14C G19C G22U G30C U34G | 0
83 | A12G A14C U20A | 0.03
84 | A12G A14G U34G | 0.08
